Patent US20260078196A1 (TJ BIOPHARMA SHANGHAI, published 2026)

Assays:
[1] = biological target: T1, monomeric human 4-1BB (human, UniProt Q07011 24-186, limits assumed); test: SPR, monomeric human 4-1BB
T1 construct: SPR analyte/ligand

[2] = biological target: T2, human CLDN6 on virus-like particles (human, UniProt P56747 1-220)
T2 construct: also called CLDN6 virus-like particles (VLP); CLDN6 VLP
T2 sequence: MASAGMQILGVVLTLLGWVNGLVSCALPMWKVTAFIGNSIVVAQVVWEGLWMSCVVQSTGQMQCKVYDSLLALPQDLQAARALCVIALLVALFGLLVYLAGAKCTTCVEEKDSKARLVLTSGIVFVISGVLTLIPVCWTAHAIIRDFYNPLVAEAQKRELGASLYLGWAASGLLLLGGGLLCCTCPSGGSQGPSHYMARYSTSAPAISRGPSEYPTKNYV

[3] = biological target: T3, soluble recombinant human 4-1BB (human, UniProt Q07011 24-186); test: ELISA, soluble recombinant human 4-1BB
T3 construct: ELISA antigen

[4] = biological target: T4, 4-1BB on cells (human, UniProt Q07011 24-255); test: flow cytometry on HEK293 cells expressing 4-1BB
T4 construct: Species is stated as human for section 2.2 as a whole, not for each cell line; also called HEK293 cells expressing 4-1BB; 4-1BB overexpressed HEK293 cell

[5] = biological target: T5, human CLDN6 on cells (human, UniProt P56747 1-220); test: flow cytometry (GMFI) on OV90 cells
T5 construct: CHO-K1 cells stably expressing human CLDN6, and OVCAR3 / OV90 cells with endogenous CLDN6; also called CHO-K1-CLDN6; CLDN6 on OVCAR3 and OV90 cells
T5 sequence: T2 sequence

[6] = biological target: T5, human CLDN6 on cells; test: flow cytometry (GMFI) on OVCAR3 cells
[7] = biological target: T5, human CLDN6 on cells; test: flow cytometry (GMFI) on CHO-K1-CLDN6 cells

monomeric human 4-1BB, sequence (Q07011 24-186 limits assumed): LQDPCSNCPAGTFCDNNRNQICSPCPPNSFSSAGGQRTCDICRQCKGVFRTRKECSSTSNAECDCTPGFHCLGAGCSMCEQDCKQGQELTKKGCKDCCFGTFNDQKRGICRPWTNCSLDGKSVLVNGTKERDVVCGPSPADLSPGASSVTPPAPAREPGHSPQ
soluble recombinant human 4-1BB, sequence (Q07011 24-186 limits assumed): as above

B1: CLDN6-1 IgG1 WT X 4-1BB (bispecific antibody)
heavy: QVQLQESGPGLVKPSETLSLTCTVSGYSITSGYYWNWIRQPPGKGLEWMGYISYSGSNNYNPSLKNRVTISRDTSKNQFSLKLSSVTAADTAVYYCARGGYYFDYWGQGTLVTVSS[… human IgG1 constant region …]GGGGSGGGGSGGGGSQVQLQESGGGLVQPGGSLRLSCAASGYTYSSNCMGWFRQAPGKGLEGVAVICTGGGSPSYADSVKGRFTISRDNAKNTLYLQMNSLRAEDTAVYYCAADLLRAGTPLSSYEFNYWGQGTLVTVSS
light: DIVMTQSPDSLAVSLGERATINCKSSQSLLNTNNQKNYLAWYQQKPGQPPKLLIYFASTRESGVPDRFSGSGSGTDFTLTISSLQAEDVAVYFCQQHYNAPRTFGGGTKVEIKRTVAAPSVFIFPPSDEQLKSGTASVVCLLNNFYPREAKVQWKVDNALQSGNSQESVTEQDSKDSTYSLSSTLTLSKADYEKHKVYACEVTHQGLSSPVTKSFNRGEC
notes: also called CLDN6-1 X 4-1BB WT; CLDN6-1×4-1BB WT
Kd [1]: 15.7 nM | Kd [2]: 2.36 nM | EC50 [3]: 0.078 nM | EC50 [4]: 0.347 nM | EC50 [5]: 2.27 nM | EC50 [6]: 6.28 nM | EC50 [7]: 1.13 nM

B2: CLDN6-1 IgG1 N297A X 4-1BB (bispecific antibody)
heavy: QVQLQESGPGLVKPSETLSLTCTVSGYSITSGYYWNWIRQPPGKGLEWMGYISYSGSNNYNPSLKNRVTISRDTSKNQFSLKLSSVTAADTAVYYCARGGYYFDYWGQGTLVTVSSASTKGPSVFPLAPSSKSTSGGTAALGCLVKDYFPEPVTVSWNSGALTSGVHTFPAVLQSSGLYSLSSVVTVPSSSLGTQTYICNVNHKPSNTKVDKKV[… human IgG1 Fc with changes …]GGGGSGGGGSGGGGSQVQLQESGGGLVQPGGSLRLSCAASGYTYSSNCMGWFRQAPGKGLEGVAVICTGGGSPSYADSVKGRFTISRDNAKNTLYLQMNSLRAEDTAVYYCAADLLRAGTPLSSYEFNYWGQGTLVTVSS
light: B1 light
notes: also called CLDN6-1 X 4-1BB NA; CLDN6-1×4-1BB NA
Kd [1]: 16.4 nM | Kd [2]: 1.61 nM | EC50 [3]: 0.129 nM | EC50 [4]: 0.406 nM | EC50 [5]: 2.84 nM | EC50 [6]: 7.11 nM | EC50 [7]: 1.03 nM
